Read counts are not given, so values of variants with three or more changes are uncertain.
B1: LINE1-mini (parent)
chain: GGCAGAGCUCAACACAGCGUGGCAAAGUGGCUGUGGCUAGACUGCC

Variants of: B1
Assay: self-cleavage, relative activity (ratio to wild type); higher = more cleavage; in vitro, sequencing; the parent is a self-cleaving ribozyme
G2A G7C A16G G40A gave a self-cleavage of 0.04.
With C8G C15A A25C the self-cleavage was 0.04.
In the case of G19U C37A C42U, the self-cleavage is reported as 0.03.
Work on U9C G22C C23U G29A A39U U43A yielded a self-cleavage of 0.05.
G2U A16U U38C C42U gave a self-cleavage of 0.08.
With U20A A26U A39G the self-cleavage was 0.04.
With C18G U20A U32A G33U U38A the self-cleavage was 0.01.
With G29U A41U G44C the self-cleavage was 0.15.
Work on A14G C15A G21U C23G C42A yielded a self-cleavage of 0.09.
With A12C C13G A39C the self-cleavage was 0.
In the case of C15G C18A G19C G22U G35U C42G, the self-cleavage is reported as 0.
A12U C13A C15A C31A G33U C42G gave a self-cleavage of 0.03.
A4G A6G A14C C23A A39C showed a self-cleavage of 0.03.
C3A G5U U9A A24U U34A G36A gave a self-cleavage of 0.13.
G1U U38G C45U showed a self-cleavage of 0.01.
For G2U G7U A12C U28C G44A, the self-cleavage was 0.
For A14C A24G C45U, the self-cleavage was 0.03.
Variant G5U A14G C31G C45A has a self-cleavage of 0.01.
Variant C8G U9A C18A has a self-cleavage of 0.02.
A14G G29A G30A U32C showed a self-cleavage of 0.04.
In the case of C3A C18U U32A U43G, the self-cleavage is reported as 0.07.
For C18U A24C G33A A41U G44A, the self-cleavage was 0.04.
With C8U A26G G27C A41C the self-cleavage was 0.03.
In the case of A26U G36C G40C, the self-cleavage is reported as 0.13.
With G5U A12G G17U C23A C42G the self-cleavage was 0.02.
With G5A G17U G44A the self-cleavage was 0.01.
Variant G7A A14C G21C U28G has a self-cleavage of 0.01.
In the case of G1A C10A G33U, the self-cleavage is reported as 0.04.
A11U U34A C46U showed a self-cleavage of 0.05.
A6U A11C A41U G44U showed a self-cleavage of 0.02.
Work on G2C G19U U32C U43C yielded a self-cleavage of 0.08.
G19U A25U G40U C45G gave a self-cleavage of 0.09.
For G1C G22A C31G C42A C45U, the self-cleavage was 0.01.
C3G C8U C18G C42A showed a self-cleavage of 0.32.
For A25U G33C G35C A39U C42G, the self-cleavage was 0.04.
Variant C10A G36U G44C has a self-cleavage of 0.03.
U28G U34C U43G gave a self-cleavage of 0.05.
Variant G5A G36C C42U has a self-cleavage of 0.09.
In the case of C3U G21U G22A A41U C42G, the self-cleavage is reported as 0.17.
For A4U A16G C18U U38G, the self-cleavage was 0.06.
A11G A26G U32A gave a self-cleavage of 0.03.
In the case of G1C A11C C15U, the self-cleavage is reported as 0.01.
For C13A G19C U38C, the self-cleavage was 0.01.
Variant A11C G19C G22A G30U has a self-cleavage of 0.06.
For G1U G2C A12C U20C, the self-cleavage was 0.01.
Variant A25U C31A C46U has a self-cleavage of 0.01.
G1U A6G A12U C18G G22A G27U G35A showed a self-cleavage of 0.01.
C13G A25U U32G gave a self-cleavage of 0.02.
Work on G2U A12G U43G G44C yielded a self-cleavage of 0.02.
C3G G5C G7A C37A gave a self-cleavage of 0.59.
G5U C15G U28G gave a self-cleavage of 0.02.
Variant C10U C23A G29A C37G has a self-cleavage of 0.01.
Work on C18A C31U G33A yielded a self-cleavage of 0.04.
Variant C8A A11U A16G has a self-cleavage of 0.04.
With A6C G21U U38A G44U the self-cleavage was 0.01.
G7A C15A G35U U38G G40C gave a self-cleavage of 0.2.
For A16U G17C U32A, the self-cleavage was 0.25.
In the case of C3G G33U U34C G40A C42G, the self-cleavage is reported as 0.15.
A6G C8G G36C C42U U43C gave a self-cleavage of 0.02.
Variant C15G C23A G30C U32A C42G has a self-cleavage of 0.
For G2C G7C U38G, the self-cleavage was 0.01.
Variant G7U U20G G29U G33A A39C has a self-cleavage of 0.05.
C15G U20C G21U A26C G30C C37A gave a self-cleavage of 0.01.
A14U C31G U34A C45U gave a self-cleavage of 0.03.
Work on A4G C10G U20A G22A U28A G40A yielded a self-cleavage of 0.01.
Work on C8A G36A C46U yielded a self-cleavage of 1.35.
C3G C8G G22U A25U showed a self-cleavage of 1.02.
Variant C8A A14G C42A has a self-cleavage of 0.25.
Work on C10A A16G U38A C42A C45G yielded a self-cleavage of 0.
G5U C8U C13G A14C gave a self-cleavage of 0.07.
Variant C18A G29C U32C G44U has a self-cleavage of 0.
In the case of C15G G35C C46U, the self-cleavage is reported as 0.18.
For C10A G27A C31A, the self-cleavage was 0.03.
Work on C15A G35C C37A yielded a self-cleavage of 0.24.
Work on C3U G5U A14U A39C C45A yielded a self-cleavage of 0.07.
C8U C23U U34G G35C G44C showed a self-cleavage of 0.03.
With A12C A16C G29U the self-cleavage was 0.02.
Work on G5U G27U U28A yielded a self-cleavage of 0.05.
In the case of C13U C23A U28A C31U A41C, the self-cleavage is reported as 0.04.
In the case of U9A G22A A26C G44U, the self-cleavage is reported as 0.59.
Variant A6C U28G G35U C42A has a self-cleavage of 0.02.
For A12C C13U C31G G33U, the self-cleavage was 0.01.
A14C C15A G30C C46G gave a self-cleavage of 0.02.
G17U G19C G21C U32A G33C U38A showed a self-cleavage of 0.02.
A11C G19A G36C gave a self-cleavage of 0.03.
C8G C42G C45U gave a self-cleavage of 0.17.
G30A C37U C46G gave a self-cleavage of 0.08.
Variant G1A G17A G40A has a self-cleavage of 0.
Variant C8U G40A C45U has a self-cleavage of 0.44.
For G27C G35A G36U, the self-cleavage was 0.22.
Work on C10A G17U A25G U28A yielded a self-cleavage of 0.02.
G30U C31A C42A gave a self-cleavage of 0.06.
In the case of C10G G29U C31U C46G, the self-cleavage is reported as 0.04.
Variant G1C U20G G35C has a self-cleavage of 0.05.
Variant A11U G36C G40U has a self-cleavage of 0.02.
A4C C15A G17A G44C showed a self-cleavage of 0.07.
For A6U C8G A25G G40A, the self-cleavage was 0.47.
In the case of A6U C18A C46A, the self-cleavage is reported as 0.58.
For G2U C18U U34A C42A, the self-cleavage was 0.02.
G29U G36A A39C G40A gave a self-cleavage of 0.54.
In the case of C8A C18A G21C, the self-cleavage is reported as 0.12.
With G2U A25G A41U the self-cleavage was 0.02.
In the case of G2U C13G A14G G17C G33U U43A, the self-cleavage is reported as 0.
Work on A14G A16C G22A yielded a self-cleavage of 0.02.
Variant G2A A12C G35U has a self-cleavage of 0.05.
With C18A A26G U28G the self-cleavage was 0.46.
C3A A16C G30C gave a self-cleavage of 0.02.
With C10U A14G G35U the self-cleavage was 0.07.
In the case of G2U G17C A24U, the self-cleavage is reported as 0.03.
Work on G2A G7C A11G G30C A39C yielded a self-cleavage of 0.02.
In the case of C13A A26U C37A, the self-cleavage is reported as 0.02.
Variant C3A A11G A39U C42U has a self-cleavage of 0.02.
G1A A4C A14G G17U U38C gave a self-cleavage of 0.75.
A16U G21U C37G gave a self-cleavage of 0.02.
Variant C8G C23U G30A C45G has a self-cleavage of 0.
Work on U9G C23U G35U yielded a self-cleavage of 0.03.
A4G C15A C18U showed a self-cleavage of 0.09.
Work on A4U G5A G40U yielded a self-cleavage of 0.07.
Variant U9C A24C U28C has a self-cleavage of 0.01.
Work on G5U U9C G21C C37U C45U yielded a self-cleavage of 0.01.
For C8G C10A A12U U20A G21A C37A G40U, the self-cleavage was 0.01.
G5U A12G U38A C45A gave a self-cleavage of 0.01.
In the case of A14G G17A G40U, the self-cleavage is reported as 0.18.
C31U U34C G40C G44A gave a self-cleavage of 0.01.
With U9G A16G G22A A39G the self-cleavage was 0.03.
C3G G5C G7C A16U A25C C31G G44C showed a self-cleavage of 0.
C3A C18G G29U showed a self-cleavage of 0.56.
Work on C15A G27C G29C A39C yielded a self-cleavage of 0.18.
U20G A25U C37G showed a self-cleavage of 0.02.
Work on A12U U20A C37G yielded a self-cleavage of 0.02.
Variant U9C U34C G35A has a self-cleavage of 0.04.
Variant G22U A24G A39G has a self-cleavage of 0.09.
U9A C15A G30C showed a self-cleavage of 0.08.
G5C A12G C18A U20A A24U showed a self-cleavage of 0.01.
In the case of C10A U28G G36A, the self-cleavage is reported as 0.02.
Work on G7C U28A C37A C42U yielded a self-cleavage of 0.24.
G29U A39G C42U gave a self-cleavage of 0.12.
With C10U A25G A39G the self-cleavage was 0.13.
A26U U38A G40A showed a self-cleavage of 0.04.
Variant G1U C13U U38A C42G has a self-cleavage of 0.02.
With G2C A6C U20C G29U G30A the self-cleavage was 0.04.
G21U A41G G44C C46A gave a self-cleavage of 0.05.
Work on U32G C37U U38C A41C C45A yielded a self-cleavage of 0.05.
With U9G C13U G17C U32G the self-cleavage was 0.1.
G19U U38G C42G showed a self-cleavage of 0.
Variant A6C G27C U28C has a self-cleavage of 0.92.
G5C C8A A24U U43C gave a self-cleavage of 0.22.
In the case of A11C C15A G29A, the self-cleavage is reported as 0.01.
For G2C C37G G40C, the self-cleavage was 0.01.
Variant C13A C18A A25U C42A has a self-cleavage of 0.02.
Variant A39G G40U C45G has a self-cleavage of 0.22.
Variant A4C C18U G33A has a self-cleavage of 0.01.
A11U C18G U43C G44A showed a self-cleavage of 0.02.
Work on C13G U28G C42A yielded a self-cleavage of 0.02.
For C13U A16U G27U U28G, the self-cleavage was 0.13.
A4G C31G G33U showed a self-cleavage of 0.14.
With G2A A4U C13A G30A the self-cleavage was 0.29.
For G19A U20A C23A, the self-cleavage was 1.53.
Work on U9G G19A U20A G27C yielded a self-cleavage of 0.03.
G2U A14C U32G gave a self-cleavage of 0.21.
Variant A16G G22U G35U has a self-cleavage of 0.02.
Variant A6U G22U U34C has a self-cleavage of 0.17.
In the case of C3A U20C G21C, the self-cleavage is reported as 0.03.
For A11U G17U G19A, the self-cleavage was 0.01.
C15G G21U G22C U38A G44U gave a self-cleavage of 0.01.
Work on U9G C23A G33A yielded a self-cleavage of 0.06.
G5A G17C A25U U32G showed a self-cleavage of 0.04.
